Values marked as one replicate rest on one cluster of the flow cell; about a third of the high ones do not repeat.
tested on: ATP; assay: switch fluorescence ratio, 500 uM ATP over buffer (Cy3 cluster intensity, sum of 5 cycles each) (fold (ratio)); higher = stronger signal-on switching upon ATP binding; sequences stand for … in TCGTCGGCAGCGTCAGATGTGTATAAGAGACAGTTTTTTTTTTTTTTTTTTTTTTTTT…TC; conditions: aptamer strand: ATP DNA aptamer (quencher-CACCTGGGGGAGTATTGCGGAGGAAGG + anchor), 100 nM annealed; ATP concentration: 500 uM; one replicate
In short: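 Five buffer/ATP imaging cycles were run on Cy3-labelled switching-strand clusters on a modified Illumina MiSeq flow-cell, with NaOH stripping and re-annealing between cycles. In each cycle, clusters annealed to 100 nM quencher-labelled ATP aptamer were imaged in selection buffer, then after 15 min with 500 uM ATP at 22 °C. Per cluster, the fluorescence ratio is summed target-cycle over summed buffer-cycle Cy3 intensity, averaged per switch-domain sequence. Only clusters within 100-1000 RFU were kept.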
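Further: ATP exposure 15 min at 22 °C before imaging.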

Sequence	switch fluorescence ratio
TAACCTAAGG	0.973
TAACCTTGCT	2.43
TAACGCAGGG	1.02
TAACGGAAAG	1.05
TAACGTTAAG	1.04
TAACTAAATG	0.992
TAACTATCGA	0.977
TAACTATTCA	1.03
TAACTCCTGG	1
TAACTCTTCT	0.992
TAACTTAACA	1.08
TAACTTACGG	1.46
TAACTTCTG	1.06
TAACTTGATG	0.998
TAACTTGTTA	1.03
TAAGAAAAAC	1.03
TAAGAAGTGC	0.946
TAAGAATTTT	0.976
TAAGACCTTA	1.07
TAAGAGCTTA	0.999
TAAGAGGGCG	0.963
TAAGCAATTG	0.994
TAAGCCGTTC	1
TAAGCCTGGG	0.933
TAAGCGAGGC	1.09
TAAGCGGGAT	0.972

Sequence	switch fluorescence ratio
TAAGCGTCGA	1.06
TAAGCGTGGA	1.05
TAAGCTGGAC	1.01
TAAGGAGGTT	0.947
TAAGGATAGT	1.02
TAAGGCAAGC	1.16
TAAGGCAGTG	0.987
TAAGGCTA	0.994
TAAGGCTCTA	0.978
TAAGGGAAAG	0.957
TAAGGGAAGT	1.03
TAAGGGAGCG	1.02
TAAGGGGAT	0.984
TAAGGGTACC	1.04
TAAGGTCCAA	0.995
TAAGTAAGGT	1.03
TAAGTATCGG	0.999
TAAGTCCATT	1.01
TAAGTCCCCG	1.02
TAAGTCTAAC	0.962
TAAGTCTGC	0.973
TAAGTGCGAA	1
TAAGTGGGCT	1.04
TAAGTGTCCC	1.05
TAAGTTACGT	1.09
TAAGTTTCGT	1

Sequence	switch fluorescence ratio
TAATAATGTA	1.02
TAATACACAA	1.03
TAATACGATG	1.02
TAATACTTTC	1.03
TAATAGACTA	1.01
TAATAGATAA	1.02
TAATAGTGCA	1.04
TAATAGTGCC	1.01
TAATCACGTA	1.05
TAATCAGGCC	0.964
TAATCGCCGC	1.01
TAATCGCCTC	1.04
TAATCGGGG	0.983
TAATCGTATA	0.97
TAATGCAGTA	1.04
TAATGCCCGG	1.03
TAATGCCCTT	0.971
TAATGCCGCG	1.07
TAATGCGGCG	0.984
TAATGCTGAA	1
TAATGCTGGA	1
TAATGCTTGA	1.02
TAATGCTTGT	0.978
TAATGGCATT	1.01
TAATGGCGCA	0.977
TAATGGGCCG	1.11

Sequence	switch fluorescence ratio
TAATGGTGAT	1.01
TAATGGTTC	0.947
TAATGGTTTC	0.993
TAATGTGTAG	1.02
TAATGTTGCG	1
TAATGTTTAC	0.984
TAATTAGATA	0.959
TAATTAGCGA	1.07
TAATTATTAT	0.997
TAATTCCATA	1.02
TAATTCGG	0.99
TAATTCTAAT	0.962
TAATTCTTA	0.997
TAATTGAA	0.967
TAATTGCTTG	0.997
TAATTGTTTC	1.02
TAATTGTTTG	1.04
TAATTTATTG	1.02
TAATTTCAGT	0.99
TAATTTGTGA	0.98
TAATTTTGAA	1.04
TACAAAAGGC	1
TACAACTTTT	1.02
